Experimental data taken from the RNAGym collection of RNA variant scans (doi:10.1073/pnas.2313332121).
Variants at the floor of the assay are shown more often than the library holds them.

B1: TPR 5TU (parent)
chain: GGAUCUUCUCGAUCUAACAAAAAAGACAAAUCUGCCACAAAGCUUGAGAGCAUCUUCGGAUGCAGAGGCGGCAGCCUUCGGUGGCGCGAUAGCGCCAACGUUCUCAACUAUGACACGCAAAACGCGUGCUCCGUUGAAUGGAGUUUAUCAUG

Variants of: B1
Experiment: polymerase ribozyme fitness, log enrichment relative to wild type (log ratio); higher = more active; in vitro selection for triplet polymerase activity
How it was run: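 PCR was used to build mutant libraries for each subunit of a heterodimeric triplet polymerase ribozyme, which were then transcribed. A single in vitro selection round, in triplicate, used a frozen incubation at −7 °C and recovered extended constructs by gel excision, streptavidin beads and RT-PCR. Fitness is the logarithm of genotype enrichment relative to wild-type enrichment, averaged over replicates with inverse-variance weights. The logarithm is base 2, and after Illumina sequencing only genotypes with ≥10 input reads and ≥1 read per output were kept.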

Polymerase ribozyme fitness (log ratio), -3.03:
U6A A60C A142G

Polymerase ribozyme fitness (log ratio), -0.452:
U6A A60G C76A U144C

Polymerase ribozyme fitness (log ratio), ≤ -4.2:
C5G U9A U44C U56G G84C A98U
U6C C35A U55A G86A C125A G133A A150C
U6A C35G C36A G84U G141A A142G U151G
C5U G50C C76U C87A U90G G126U
U6A C8G A12U A30C A47G G86U C105U
C5U U9C G84U C116G C123G G133U
C5U C36U A39C G112U A113U C125U
U6A A39G U61C G83C C85U C103A
C5U A52C U61A C76A G88C
C5G U7A U104G C108G G136C A138C
C5U C8A C18G A26C C79G G84A C105G G128U
C5U A20G G50C U56C U111A
C5G C38G G86C G117U G143A
C5U U53A C75U C85G C131U G140U
C5U A21G A26U C43G C96G A98U
C5G C54G U56G C95U C125U C129A G133U
C5U A39U C51U U56G A66G C87A
C5G C54A G58C A73G C79A C87U C116A A138G
U6A A40U C57G G59A C76G A98G
U6A A28C U44A U45A A49U C85G U144A
C5U A16C A17U C27U A49C U55G
C5U G50C A60U G74C G133C
U6C A17C G50A C75G A89G G92C
U6A U7A A29C C43A G50C C57A C108G U134G
U6C A20U C27G C57A A60U G112C C116U G140U
C5G U7G C8A A40C A52G C96A C108G G112C U127A
C5G A47U A52U C69U G94A C131U
U6A G71A C87G G152U
C5U A24C A30U G34A A49C C95G A119C C123U
U6C A24U G74C G81A C87A U146G
U6C A49G G50U A73C G83C C93G C108U
C5G A41U U55A G84A A147C
C5G A41U A49C C87G A98G
C5G G42A C87A C99U C108A U151G
U6A C32A A89U A91C G124U A150G
C5G G59C G71A U102A A115G C123U
C5G G11U A19C C96U A113G G124A
C5U A52U A64C G70C C85A C116G A122U C125U A150G
U6A A17U A66U
U6C A24G U31A A52C C87U U90G G92U C93A
C5G U53A U56A G68C G94A C118U U148A A150C
C5U A23U A28U C105G A120U U148A
C5U C18U C76G C105U U148A
U6C C8G A23U U31C G50C C75A G84C U151G
U6C C54U G59A A60U C95U G128U U130G
C5G G70C G92U C129U
C5G G67U G70C G86A C132G
U6A A19G C57A C72U A115C A122U G124A
C5U C85G A137C
U6A C10A A41C U56A G62U G84A G133U
C5G C10U C14U G42C U53A G58A A107U C118A
C5G C35U A37G A49C A73U G83C
U6C C8U A40C G88U C99U U139C G141A C149G
U6A C18U U45G U82A C95A C123G A150G
C5G C18U C79A C87U U145A
C5U U53A C63A C85U C93G C132U
C5G G11C C36U A110G C118U U135C G143C
C5U C85U C108G G143A A150G
U6C A24G A40U G62A A142G
C5U G50A A150G
C5G C57G G67U C79A A91U C108G U130G G143C
U6A G50C A64G G84U G88A
U6A C10G A23U C32G A39U G48C G92U U146A
C5G C32A C57U C99U
C5G G68C C93U C99G C108G U145C
U6A C14G A20G U78C C96G U139A
C5G C27U U53G C54G A142G
C5G C14A C35U G65C A73C G92C
C5U C27U C63U C79A C85U G86A U102A
C5G G48C U77A C85A G100A C103G C125A
C5G C87G C96A A110G
U6A A137C U148A
C5G U15C C27U G50A C95A C99G U104G C129G
U6A A37G A64U C79A
U6C A24C G71A C95U
C5U C14U A19U C76U G84A G92A U101A G124A

Polymerase ribozyme fitness (log ratio), 0.614:
C5U A121G

Polymerase ribozyme fitness (log ratio), -3:
C5U C38G C57U G84U A106C

Polymerase ribozyme fitness (log ratio), -2.74:
C5G G50U G81C G92C G143A

Polymerase ribozyme fitness (log ratio), -4.04:
U6C C14U C38U U61A U145C

Polymerase ribozyme fitness (log ratio), -1.54:
C5G A41C U55A G58A A60G

Polymerase ribozyme fitness (log ratio), -3.16:
C5U C93G
